Assay results as given in the supplement of paper PMC3334620.
Whole data set: some 33,000 sequences, median “E-score (-0.5 to 0.5)” near -0.041, cut for the highest 2% near 0.37. The list shows a part of the results.

Biological target: T1, Ecm22 (UniProt Q05958)
T1 sequence: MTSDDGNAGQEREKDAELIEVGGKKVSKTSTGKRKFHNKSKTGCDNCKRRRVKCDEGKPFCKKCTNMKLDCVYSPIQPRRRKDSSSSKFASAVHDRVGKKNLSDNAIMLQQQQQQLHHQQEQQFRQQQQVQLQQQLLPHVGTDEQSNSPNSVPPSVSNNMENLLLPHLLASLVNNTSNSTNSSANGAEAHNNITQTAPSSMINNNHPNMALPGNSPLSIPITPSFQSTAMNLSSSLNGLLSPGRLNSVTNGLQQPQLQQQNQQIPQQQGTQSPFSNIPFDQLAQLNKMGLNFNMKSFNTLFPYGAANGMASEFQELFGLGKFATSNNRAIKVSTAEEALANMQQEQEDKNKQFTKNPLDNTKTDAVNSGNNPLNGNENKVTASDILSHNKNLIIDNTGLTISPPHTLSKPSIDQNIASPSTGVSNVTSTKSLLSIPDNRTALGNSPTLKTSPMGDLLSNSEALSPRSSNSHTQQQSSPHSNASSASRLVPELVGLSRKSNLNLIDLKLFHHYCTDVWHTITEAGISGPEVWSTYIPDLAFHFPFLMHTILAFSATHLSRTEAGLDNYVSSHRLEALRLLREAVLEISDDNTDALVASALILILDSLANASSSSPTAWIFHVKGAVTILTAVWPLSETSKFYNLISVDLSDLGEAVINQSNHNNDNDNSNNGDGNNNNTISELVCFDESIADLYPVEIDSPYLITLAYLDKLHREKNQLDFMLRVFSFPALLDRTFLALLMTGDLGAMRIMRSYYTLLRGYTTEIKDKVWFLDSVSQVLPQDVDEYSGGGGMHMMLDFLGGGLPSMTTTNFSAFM
Assay: PBM E-score (8-mer binding enrichment) (E-score (-0.5 to 0.5)); higher = stronger / more preferred TF binding; most listed sequences are background and not binding sites
Conditions: protein concentration: 200 nM; construct: GST-full length
Method in brief: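 E-scores (a modified Wilcoxon-Mann-Whitney statistic) were assigned by the Universal PBM Analysis Suite to every ungapped eight-base word pooled with its reverse complement. The input came from universal all-10-mer Agilent arrays made double-stranded by primer extension and probed with GST-tagged yeast transcription factors at about 100-200 nM. Fluorescent anti-GST detected bound protein, and masliner normalised the scans.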

Sequence | PBM E-score
AATACCCT | -0.0191
CATACGAG | 0.481
GCGCAGGA | -0.153
ACCTCAAT | -0.112
AAGTTTCG | 0.0964
AAGTGATA | -0.118
TAATTGGA | -0.059
AGTACTTG | 0.152
CGATCAGA | 0.014
CGAATATA | 0.179
AACATGTT | 0.0291
CACGGAGA | -0.134
CTCCAGGA | -0.147
GCCGATAA | -0.06
CGGGCACA | -0.0619
CGACCGCC | 0.137
TAAAATCA | 0.0531
CGGGGCGC | -0.00374
ACGGCGGG | 0.051
GGAGCAAA | -0.116
CAAGCCTC | -0.0576
TTCAGAAA | -0.132
ATGTAATG | -0.0662
AACAGGCC | -0.269
CCAAACCC | -0.228

Sequence | PBM E-score
GTTTCCAA | 0.0294
GGGTCAAA | 0.0713
AGTCCCTA | -0.281
ATAGGATA | -0.101
ATGCGCAG | -0.118
ACGTATAG | 0.403
AACTTACC | -0.0146
GACTAAAA | -0.124
CTAACAAC | 0.0246
GATCGCTA | 0.11
GCACTGGA | -0.0491
AAAGTAGA | -0.156
GCCAATCC | -0.0196
CTCAGGGA | -0.198
CTCGACGA | 0.0457
CCTGCTCG | 0.27
ATGCGGCA | -0.0733
AAACGCAT | 0.0604
TATGATAA | 0.126
GTCTAATA | -0.0379
TCGGGAAA | 0.193
ATAATCAA | 0.00669
ATTTGACA | 0.0215
CCATCCGA | 0.0205
CGGCGGAG | -0.0217

Sequence | PBM E-score
AGAGTGCC | -0.319
GCAATTTA | 0.154
CTAAGGGC | -0.333
CAGCGCAC | -0.186
ATTGCCGG | -0.0664
AGGCTCGG | 0.0899
ACTTTACA | -0.00715
TATTGGAA | -0.127
CGCTCTAC | 0.208
CGGATAAA | 0.352
CCCGACTA | 0.0177
GCAGGGGC | -0.243
AGAAACCG | 0.165
GTCTGATA | -0.126
CCTATTAC | 0.00756
CGCGATCA | 0.179
CTCTCCAC | -0.309
AATCCAAC | -0.124
GCGAATGA | 0.225
ACGTTTCT | 0.094
AGGTGGTA | -0.121
ACGACCCT | 0.331
CACCTCTG | -0.306
CGCTTATA | 0.281
CGACGAAC | 0.177

Sequence | PBM E-score
ACTTTCTG | -0.18
CGTCTTTC | 0.0987
AAGCAAAG | -0.212
CTGTGTCA | -0.223
AGATGCCC | -0.0621
GCAGTAGA | -0.0847
CACTCCAC | 5e-05
AGACTCCT | -0.339
CGCCGGCC | -0.243
ACGCTTCG | 0.262
TCACGAAA | -0.00573
ATCTAGGC | -0.217
ACCGCGGC | 0.08
CAACCTGC | -0.0911
ACTACCGC | -0.164
AAGGCTCG | 0.176
CCCTTCGG | 0.0505
AGACTCCC | -0.275
TGCCTCAA | -0.187
GCTCGCCA | 0.0906
GCCGCAGA | 0.0154
CATTTCAG | -0.0766
ACTGGTAA | 0.0597
GCTCCCAA | -0.0944
AAACGTGA | 0.119

Sequence | PBM E-score
AGCAGTTG | -0.138
AATGCTTG | -0.129
GTCCGCCA | -0.142
TTGCTAAA | -0.0905
GCAGATGC | 0.0087
CACAGGCG | -0.195
AAGCCAAT | -0.0127
TAACAAAA | -0.0453
GGCCACAC | -0.261
TCGTTGCA | 0.356
ACATTGTA | 0.182
CTCGATTA | 0.233
CGGGCGTC | 0.0339
CGGAGAGC | -0.0728
ATATGGCC | -0.145
GAAAACTA | 0.0964
AGCTAAAT | 0.0485
AGAGTTGC | -0.115
ACGTGGCT | -0.0377
GGAAACAC | 0.0703
GCAAGGCA | -0.0754
AACACACG | -0.149
TGCACCAA | -0.177
AACGTTGA | 0.0505
CATACACC | -0.059

Sequence | PBM E-score
TATGTTCA | -0.0522
AGGCTGCC | -0.137
CAAGGGTA | -0.0852
ATTGCCTC | -0.0779
CGATTGTA | 0.147
AACCAAGG | 0.0371
GCCTCAAA | -0.0302
AAAGGCGT | -0.175
CTGCAGGC | -0.263
CTATGCCA | -0.308
GCTAAACA | -0.0273
GGTTATAA | -0.139
CAACCACG | -0.0139
CGAGGATA | 0.23
ATCGTGGA | -0.0151
AAGCCTAT | -0.106
GAAGCGAC | 0.217
AGCCTTCG | 0.0593
CATGCTCA | -0.229
CATGCCTC | -0.0782
CAGGCAGA | -0.091
GTAGCTAA | 0.0391
CTAGCGGC | -0.29
AACTGGTC | -0.0118
AGTAGGCC | 0.00266

Sequence | PBM E-score
GCCGCGTA | 0.213
AGAGGGTG | -0.165
ACCAGCTA | -0.0229
ATGCGCAA | 0.0145
ATTATCCC | 0.0399
CGTGAAAG | 0.0141
ACTGCCCA | -0.0198
CTAAGTGC | -0.102
CCATAGGG | -0.234
AGTCGTCG | 0.01
GTCTGCGA | -0.0165
AGATGATC | 0.122
CGTCATTC | 0.0928
TGCAAGCA | -0.215
GAACGTTC | 0.277
ATTGCCAC | -0.126
AGCGATTA | 0.0926
GAGCGTAC | 0.208
AGCCGAAG | -0.0638
CCGTGGCC | -0.235
CAGGACCA | -0.27
ATCCATGA | -0.237
CTGAAAAG | -0.0321
CTGAGCAA | -0.0639
CCTTGCAC | 0.0147

Sequence | PBM E-score
AGGCTCCC | -0.294
CAGATCTC | -0.09
AACCAAAC | 0.062
AGCACACC | -0.231
ACCAAAAA | -0.105
ATTTAGGC | -0.223
GACGTCTC | 0.164
GAGTGAAA | -0.0908
ATCTAGGG | -0.0589
TCCAACCA | -0.229
ATCGTGCC | 0.0276
GGTTAAAC | 0.116
CGTAGTTC | 0.164
ATTTGGGC | -0.13
GCCGAGGC | 0.0887
GCAAACCA | 0.047
CTTAAGGC | -0.0987
ATCGCTTC | 0.12
AGCGAGAT | 0.355
CGAGCACG | 0.194
ATCCTAGG | -0.178
CCTACAGA | -0.162
ACCCCGGT | 0.00636
CTGGAGCC | -0.305
AATGGGGT | -0.0994

Sequence | PBM E-score
GTTTGAGA | 0.111
CAGTACCG | -0.0654
TAAGCAAA | 0.136
GCAACGGA | 0.226
GAAAAATC | 0.191
CTGTCTAC | -0.147
GACGTTTA | 0.303
AGGATGTA | 0.12
ACTGGCCG | -0.111
ATAGAAGC | -0.00506
CGTAGAAC | 0.268
AACTCACC | -0.105
ACAATCTC | 0.0197
AGCGGTAG | 0.0145
CAGGGGGC | -0.107
GCCCGCGA | 0.083
GTCCTGGA | -0.225
ACCTGTAT | -0.0452
AAAATCGG | -0.0872
